# Source: the supplement of paper PMC8728848
# This is one part of the list.
# B1: Epa1-NP-mutant-E227A (Candida glabrata), Q6VBJ0 (protein)
# chain: MILNPALFLNKCVCIYTTLILLLLTNGGYATSSNDISLASKDPTTFPLGCSPDITTPKKGLSMELYSYDFRKKGSYPCWDAAYLDPNYPRTGYKSHRLLAKVDGVTGNINFYYHATKGCTPQLGHLPASYNYPKPLTMTNFTMLLYGYFRPKVTGFHTFTISADDLLFVNFGAGNAFDCCRRDSSADHFGNYQAYAIWGSKTAKDELTVHLDAGVYYPIRLFYNNRAYDGALSFTFKTESNENTVSDFSEYFFSLDDTEEGCPGLISYDSSCASVKTSKIIGIDYHTETPNENLVPITKTIYHLGIPCTGTTTTPLCGSGFYDPLANKCVTINTSSTSSVTKTTSHTTSKEVSFHSSISSQKTLIPKSIPSPYGPIKSQSIPTEMETSSEISSSEYAFSDVISTPSHSPYTKKHSSLNSSSYTSTVIHSLTSYSISQGIFSTSLSEQNITSKSSTDKFSTATSMSNNITQSSIIISQFSTNNENYTTTSMHTSSDKISTETLNNSISTTTSILFSNSSTILKNNTTIISSDKDTHYHPVNPTIVCSTNKTEIICASITQPSISNSNNHWSSSVLKFNSTTVRSTLPSSAGSNETSINVPFSSSTESNTSTSSTSTSNSKMVRSTLPSSAGSNETSISVPFSSSTESNTSTSSTSTSNSKMVRSTLPSSAGSNETSINVPFSSSTESNTSTSSTSTSNSKTVRSTPFSSAGIIMTSLSQRNNKSASSYASSNSKCYNTADSCRKVHSTPSYLLTSSYTSEGVDYDCSLVSTKLKINDTNCVNNKHTTKSCLKTSVTTTIPTLEIKTARKSSSNTIGLHSYPTSSPNKSISSAPIIGYISSFKTIKTASPSYQTSDLTTITTITSLNNPGSTAVENTHESNDKSRKTSSNDISSKHSVIKETKDAVESSNKSHQTNTLKCSSIIIASSSHNSYESLGGTTLTLTLSKVYSPQNNDTLPFLEISEVNPSRTVLPESSKMMQYLTSTEERNKTARNTIATNIVSISTFHFEGEGNAIRMGYTQLLLMLIGIIVMNIGT
# Assays:
# Test in all cases: glycan array binding signal (z-score within array); higher = stronger binding
# Settings in all cases: glycan notation: IUPAC condensed, linker removed; mutation: E227A
# [1] = target: Man(a1-2)Man(a1-3)[Man(a1-2)Man(a1-6)]Man
# Method in brief: (§1)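 Negative Z-scores can be read as non-binding. The Z-score is calculated within each array and then averaged across arrays of one protein sequence at different concentrations or buffers and across linkers. Arrays, 3228 in all, were curated from the Consortium for Functional Glycomics database and kept only where the protein sequence was available.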
# [2] = target: Man(a1-2)Man(a1-3)[Man(a1-2)Man(a1-6)]Man(a1-6)[Man(a1-2)Man(a1-2)Man(a1-3)]Man
# Method in brief: as §1
# [3] = target: Man(a1-2)Man(a1-3)[Man(a1-2)Man(a1-6)]Man(a1-6)[Man(a1-2)Man(a1-2)Man(a1-3)]Man(b1-4)GlcNAc(b1-4)GlcNAc
# Method in brief: as §1
# [4] = target: Man(a1-2)Man(a1-3)[Man(a1-6)]Man(a1-6)[Man(a1-2)Man(a1-3)]Man(b1-4)GlcNAc(b1-4)GlcNAc
# Method in brief: as §1
# [5] = target: Man(a1-2)Man(a1-6)[Man(a1-3)]Man(a1-6)[Man(a1-2)Man(a1-2)Man(a1-3)]Man
# Method in brief: as §1
# [6] = target: Man(a1-2)Man(a1-6)[Man(a1-3)]Man(a1-6)[Man(a1-2)Man(a1-2)Man(a1-3)]Man(b1-4)GlcNAc(b1-4)GlcNAc
# Method in brief: as §1
# [7] = target: Man(a1-3)[Man(a1-6)]Man
# Method in brief: as §1
# [8] = target: Man(a1-3)[Man(a1-6)]Man(a1-6)[Man(a1-2)Man(a1-3)]Man(b1-4)GlcNAc(b1-4)GlcNAc
# Method in brief: as §1
# [9] = target: Man(a1-3)[Man(a1-6)]Man(a1-6)[Man(a1-3)]Man
# Method in brief: as §1
# [10] = target: Man(a1-3)[Man(a1-6)]Man(a1-6)[Man(a1-3)]Man(b1-4)GlcNAc(b1-4)GlcNAc
# Method in brief: as §1
# [11] = target: Man(a1-3)[Man(a1-6)]Man(b1-4)GlcNAc(b1-4)GlcNAc
# Method in brief: as §1
# [12] = target: Man(a1-3)[Man(a1-6)]Man(b1-4)GlcNAc(b1-4)[Fuc(a1-6)]GlcNAc
# Method in brief: as §1
# [13] = target: Man(a1-6)Man
# Method in brief: as §1
# [14] = target: Man(b1-4)GlcNAc
# Method in brief: as §1
# [15] = target: MurNAc(b1-4)GlcNAc
# Method in brief: as §1
# [16] = target: Neu5Ac(a2-3)Gal
# Method in brief: as §1
# [17] = target: Neu5Ac(a2-3)Gal(b1-3)GalNAc
# Method in brief: as §1
# [18] = target: Neu5Ac(a2-3)Gal(b1-3)GalNAc(b1-3)Gal(a1-4)Gal(b1-4)Glc
# Method in brief: as §1
# [19] = target: Neu5Ac(a2-3)Gal(b1-3)GalNAc(b1-4)Gal(b1-4)Glc
# Method in brief: as §1
# [20] = target: Neu5Ac(a2-3)Gal(b1-3)GalNAc(b1-4)[Neu5Ac(a2-3)]Gal(b1-4)Glc
# Method in brief: as §1
# [21] = target: Neu5Ac(a2-3)Gal(b1-3)GalNAc(b1-4)[Neu5Ac(a2-8)Neu5Ac(a2-3)]Gal(b1-4)Glc
# Method in brief: as §1
# [22] = target: Neu5Ac(a2-3)Gal(b1-3)GalNAc6S
# Method in brief: as §1
# [23] = target: Neu5Ac(a2-3)Gal(b1-3)GlcNAc
# Method in brief: as §1
# [24] = target: Neu5Ac(a2-3)Gal(b1-3)GlcNAc(b1-2)Man
# Method in brief: as §1
# [25] = target: Neu5Ac(a2-3)Gal(b1-3)GlcNAc(b1-2)Man(a1-3)[GlcNAc(b1-4)][Neu5Ac(a2-3)Gal(b1-3)GlcNAc(b1-2)Man(a1-6)]Man(b1-4)GlcNAc(b1-4)GlcNAc
# Method in brief: as §1
# [26] = target: Neu5Ac(a2-3)Gal(b1-3)GlcNAc(b1-2)Man(a1-3)[Neu5Ac(a2-3)Gal(b1-3)GlcNAc(b1-2)Man(a1-6)]Man(b1-4)GlcNAc(b1-4)GlcNAc
# Method in brief: as §1
# [27] = target: Neu5Ac(a2-3)Gal(b1-3)GlcNAc(b1-2)[Neu5Ac(a2-3)Gal(b1-3)GlcNAc(b1-4)]Man(a1-6)[Neu5Ac(a2-3)Gal(b1-3)GlcNAc(b1-2)Man(a1-3)]Man(b1-4)GlcNAc(b1-4)GlcNAc
# Method in brief: as §1
# [28] = target: Neu5Ac(a2-3)Gal(b1-3)GlcNAc(b1-3)Gal(b1-3)GlcNAc
# Method in brief: as §1
# [29] = target: Neu5Ac(a2-3)Gal(b1-3)GlcNAc(b1-3)Gal(b1-4)GlcNAc
# Method in brief: as §1
# [30] = target: Neu5Ac(a2-3)Gal(b1-3)GlcNAc(b1-3)GalNAc
# Method in brief: as §1
binder,measurement,setting,value
B1,glycan array binding signal (z-score),[1],-0.166
same,glycan array binding signal (z-score),[2],-0.185
same,glycan array binding signal (z-score),[3],-0.225
same,glycan array binding signal (z-score),[4],-0.198
same,glycan array binding signal (z-score),[5],-0.174
same,glycan array binding signal (z-score),[6],-0.187
same,glycan array binding signal (z-score),[7],-0.164
same,glycan array binding signal (z-score),[8],-0.194
same,glycan array binding signal (z-score),[9],-0.196
same,glycan array binding signal (z-score),[10],-0.196
same,glycan array binding signal (z-score),[11],-0.212
same,glycan array binding signal (z-score),[12],-0.176
same,glycan array binding signal (z-score),[13],-0.169
same,glycan array binding signal (z-score),[14],-0.171
same,glycan array binding signal (z-score),[15],-0.194
same,glycan array binding signal (z-score),[16],-0.195
same,glycan array binding signal (z-score),[17],-0.186
same,glycan array binding signal (z-score),[18],-0.191
same,glycan array binding signal (z-score),[19],-0.214
same,glycan array binding signal (z-score),[20],-0.2
same,glycan array binding signal (z-score),[21],-0.159
same,glycan array binding signal (z-score),[22],-0.214
same,glycan array binding signal (z-score),[23],-0.186
same,glycan array binding signal (z-score),[24],-0.218
same,glycan array binding signal (z-score),[25],-0.191
same,glycan array binding signal (z-score),[26],-0.177
same,glycan array binding signal (z-score),[27],-0.188
same,glycan array binding signal (z-score),[28],-0.203
same,glycan array binding signal (z-score),[29],-0.228
same,glycan array binding signal (z-score),[30],-0.212
